About 14,000 (4.5%) of roughly 310,000 compounds showed an effect of 50% or more. The effect is printed as a negative number. The list shows a part of the results.

The values that follow come from article PMC4336329 (PLoS ONE, 2015).
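Note: peak tail current of the secondary pulse compared with the same well before compound.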

The target of this test is human ether-à-go-go-related gene (hERG) potassium channel (human, UniProt Q12809). In words: primary screen, population patch clamp on CHO cells stably expressing hERG.
Chain of human ether-à-go-go-related gene (hERG) potassium channel (Q12809 whole entry, looked up): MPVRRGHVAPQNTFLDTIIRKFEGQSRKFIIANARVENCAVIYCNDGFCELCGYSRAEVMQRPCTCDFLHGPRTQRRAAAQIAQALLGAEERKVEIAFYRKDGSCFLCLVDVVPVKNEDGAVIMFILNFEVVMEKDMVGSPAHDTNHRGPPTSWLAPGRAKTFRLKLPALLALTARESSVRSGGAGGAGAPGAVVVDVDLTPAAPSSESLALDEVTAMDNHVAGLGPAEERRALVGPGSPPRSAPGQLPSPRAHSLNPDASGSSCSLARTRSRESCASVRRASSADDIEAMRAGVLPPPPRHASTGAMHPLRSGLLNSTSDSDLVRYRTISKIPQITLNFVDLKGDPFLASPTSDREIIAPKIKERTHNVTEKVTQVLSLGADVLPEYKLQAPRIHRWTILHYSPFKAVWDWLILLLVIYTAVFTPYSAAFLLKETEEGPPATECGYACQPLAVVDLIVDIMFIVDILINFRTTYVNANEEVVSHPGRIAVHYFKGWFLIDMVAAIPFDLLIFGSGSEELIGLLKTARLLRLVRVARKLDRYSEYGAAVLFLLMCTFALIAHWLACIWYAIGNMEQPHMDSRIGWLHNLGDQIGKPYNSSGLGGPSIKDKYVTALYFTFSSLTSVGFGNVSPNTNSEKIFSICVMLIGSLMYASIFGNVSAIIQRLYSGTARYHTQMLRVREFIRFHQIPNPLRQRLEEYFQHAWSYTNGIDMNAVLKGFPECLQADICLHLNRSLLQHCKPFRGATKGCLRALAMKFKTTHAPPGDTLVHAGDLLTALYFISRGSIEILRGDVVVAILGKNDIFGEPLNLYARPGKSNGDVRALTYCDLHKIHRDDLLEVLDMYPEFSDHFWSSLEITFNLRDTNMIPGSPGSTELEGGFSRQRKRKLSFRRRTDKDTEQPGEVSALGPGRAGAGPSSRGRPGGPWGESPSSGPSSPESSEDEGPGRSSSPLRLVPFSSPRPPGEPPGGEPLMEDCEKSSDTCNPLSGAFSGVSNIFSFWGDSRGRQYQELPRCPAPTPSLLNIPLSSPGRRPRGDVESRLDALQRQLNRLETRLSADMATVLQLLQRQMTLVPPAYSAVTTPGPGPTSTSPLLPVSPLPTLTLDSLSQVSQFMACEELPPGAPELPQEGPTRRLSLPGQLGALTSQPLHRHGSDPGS
As for `CSc1nc(-c2ccco2)nn1C(=O)c1ccc(C)cc1`, the “hERG current change (%, negative = inhibition) at 10uM” value worked out at 11.8%.
As to `CCC(=O)Nc1ccc(C(=O)N2CCN(C(=O)c3ccco3)CC2)cc1`, the “hERG current change (%, negative = inhibition) at 10uM” value is -6%.
As to `O=C(CCC1CCCN(C(=O)C2CCCC2)C1)NCc1ccc(F)c(F)c1` (stereo not drawn), the “hERG current change (%, negative = inhibition) at 10uM” value is reported as -30%.
In the case of `NC(=O)c1ccsc1NC(=O)COC(=O)COc1ccccc1F` it was -1.61%; in that of `CCOC(=O)C1CCN(C(=O)Cc2cccs2)CC1`, -4.67%; in that of `CCOP(=O)(C#CC(C)(C)C)C(O)(c1ccccc1)C(F)(F)F` (stereo not drawn), -9.82%.
In the case of `CCC(=O)Nc1nc2ccc3nc(C)sc3c2s1` it was -7.15%.
In the case of `CCOc1ccc(C(=O)N(CN2CCCC2=O)c2ccc(C)cc2)cc1` it was -8.79%.
In the case of `Cc1[nH][nH]c(=O)c1C(c1ccc(-c2ccc(F)cc2)o1)c1c(C)[nH][nH]c1=O`, the “hERG current change (%, negative = inhibition) at 10uM” value is given as 17.9%.
In the case of `Cc1ccccc1/C=N/N1C(=O)CSC1=S` it was 14.7%; in that of `Cc1noc(C)c1CSc1ccc(Br)cc1`, 4.6%; in that of `Cc1ccc(-c2cc3c(n2-c2ccc(C(=O)O)cc2)CCCC3=O)cc1`, 7.44%.
In the case of `Cc1ccc(OCCOCCOc2ccc(Br)cc2/C=N\NC(=O)c2ccncc2)cc1` it was -8.61%; in that of `Cc1ccc(Cl)cc1N1CCN(C(=O)C2(S(=O)(=O)c3ccc(Cl)cc3)CC2)CC1`, -6.38%; in that of `Cc1ccc(/C=N/NS(=O)(=O)c2ccccc2)o1`, 7.34%.
In the case of `CCCn1c(N)c(N(CCOC)C(=O)c2ccc([N+](=O)[O-])c(C)c2)c(=O)[nH]c1=O` it was 35.8%.
As to `Cc1[nH]n2c(=O)c3c(nc2c1-c1ccccc1)CCC3`, the “hERG current change (%, negative = inhibition) at 10uM” value was 0.138%.
The same measure for `COC(=O)c1cn(C(=O)c2ccc(OC)cc2)c2ccccc12`: 12.7%; for `Cn1cnnc1SCC(=O)Nc1ccc(S(=O)(=O)N2CCCC2)cc1`: 0.142%; for `CCOc1ccc(CN2CCN(S(=O)(=O)c3ccc(NC(C)=O)cc3)CC2)cc1OC.O=C(O)C(=O)O`: -35.4%.
Consider `CCOc1ccc(C2c3[nH]c4ccccc4c3C[C@H]3C(=O)N(C4CCN(Cc5ccccc5)CC4)CC(=O)N23)cc1OC` (stereo partly drawn), for which the “hERG current change (%, negative = inhibition) at 10uM” value is -5.25%.
With `Cc1c(CC(=O)N[C@H](C(=O)O)C(C)C)c(=O)oc2cc3c(cc12)CCC(C)(C)O3`, the “hERG current change (%, negative = inhibition) at 10uM” value is given as 23.1%.
Take `NC(=O)/C(=C\c1ccncc1)c1cccc2ccccc12`: the “hERG current change (%, negative = inhibition) at 10uM” value is 13%.
`Cc1ccc(S(=O)(=O)NNC(=S)Nc2cccc(F)c2)cc1`: the “hERG current change (%, negative = inhibition) at 10uM” value was found to be 19.7%.
In the case of `O=C(N/N=C\C1CC=CCC1)c1ccc(Br)o1` (stereo not drawn) it was 15.6%; in that of `COc1cc(S(=O)(=O)NC2CCCCC2)ccc1Cl`, -25.8%.
Take `CCOC(=O)c1c(C)n(C)c2cc(OCCN(CC)CC)ccc12`: the “hERG current change (%, negative = inhibition) at 10uM” value was -9.96%.
For the compound `COc1ccccc1N1CCN(CCN(C(=O)c2ccc(F)cc2)c2ccccn2)CC1.Cl`, the “hERG current change (%, negative = inhibition) at 10uM” value was -78.8%.
Turning to `CCN1C(=O)C(F)(CC)C(=O)c2ccccc21` (stereo not drawn), the “hERG current change (%, negative = inhibition) at 10uM” value is on record as -0.848%.
In the case of `O=C(NCCCO)C12CC3CC(CC(C3)C1)C2` it was 11.7%; in that of `Cc1ccc(C(=O)NCC(=O)Nc2ncccc2C)s1`, 1.91%; in that of `COc1cc(OC)nc(NC(=O)NS(=O)(=O)c2ccc(OC(F)(F)F)cc2)n1`, 17.2%.
In the case of `COc1ccc(CCNS(=O)(=O)c2ccc(-c3ccc(=O)[nH]n3)o2)cc1OC` it was 10.7%.
As for `CCNC(=O)CN(c1ccc(CC)cc1)S(C)(=O)=O`, the “hERG current change (%, negative = inhibition) at 10uM” value was determined as 3.74%.
In the case of `COc1ccccc1NS(=O)(=O)c1ccc(NC(=O)CCNC(=O)c2ccco2)cc1` it was 14.4%.
In the case of `COc1ccccc1NC(=O)c1cnc2n(c1=O)CCS2` it was 10.7%; in that of `O=C(CSc1ccc(Cl)cc1)NC(=O)c1ccccc1`, -7.63%; in that of `O=C(Nc1cc(F)ccc1F)C1CCCN(c2ncnc3c2nc2n3CCCCC2)C1` (stereo not drawn), -59.5%.
The same measure for `CCN(CC)C(=O)C1(P(=O)(c2ccccc2)c2ccccc2)CCC1`: 8.45%; for `O=C(CN(C(=O)CCC(=O)Nc1ccccn1)c1ccc2c(c1)OCO2)NCc1ccc(F)cc1`: 9.42%.
For the compound `CN1C/C(=C/c2ccncc2)C(=O)/C(=C/c2ccncc2)C1`, the “hERG current change (%, negative = inhibition) at 10uM” value worked out at 26.7%.
Take `CCCC(=O)N(c1ccc(OCC)cc1)C1C=CS(=O)(=O)C1` (stereo not drawn): the “hERG current change (%, negative = inhibition) at 10uM” value was -19.2%.
The same measure for `Cc1noc(C)c1S(=O)(=O)Nc1ccc(C(=O)N2CCc3ccccc3C2)cc1`: -12.4%.
In the case of `Cc1cc(C)n2cc(CSc3nncn3C)nc2n1` it was 17.2%.
With `CCNCc1cc(Cl)cc(OC)c1OC(C)C.Cl`, the “hERG current change (%, negative = inhibition) at 10uM” value turned out to be 6.4%.
